According to the antibiotic and cytotoxicity screens of Wong et al. (2023):
This is one part of the list.

How the values were obtained:
[1] = test system: HSkMC (human skeletal muscle cells); assay: cytotoxicity call (relative viability < 0.9); settings: 10 µM
[2] = test system: HepG2; assay: cytotoxicity call (relative viability < 0.9); settings: 10 µM
[3] = test system: S. aureus RN4220; assay: growth inhibition call (relative growth <= 0.2); settings: 50 µM

Row | SMILES | cytotoxicity call [1] | cytotoxicity call [2] | growth inhibition call [3]
1 | COC(=O)C1=COC(OC2OC(CO)C(O)C(O)C2O)C2C(C)CC(=O)C12 (stereo unspecified) | inactive | inactive | inactive
2 | Cc1ccc(S(=O)(=O)N(C)C[C@H]2OCCCC[C@H](C)Oc3ccc(NC(=O)CCC(F)(F)F)cc3C(=O)N([C@H](C)CO)C[C@H]2C)cc1 | inactive | inactive | inactive
3 | COc1ccc(S(=O)(=O)Nc2ccc3c(c2)CC(=O)N([C@H](C)CO)C[C@@H](C)[C@@H](CN(C)Cc2ccc(Oc4ccccc4)cc2)O3)cc1 | active | active | inactive
4 | C[C@@H]1CN([C@H](C)CO)C(=O)c2cc(NC(=O)Cn3cnnn3)ccc2O[C@H]1CN(C)C(=O)Nc1ccccc1 | inactive | inactive | inactive
5 | Cc1noc(C)c1NC(=O)Nc1ccc2c(c1)CC(=O)N([C@@H](C)CO)C[C@H](C)[C@@H](CN(C)C(=O)NC(C)C)O2 | inactive | inactive | inactive
6 | Cc1ccc(S(=O)(=O)Nc2ccc3c(c2)C(=O)N([C@H](C)CO)C[C@H](C)[C@H](CN(C)C(=O)Nc2ccc(F)cc2)OCCCC[C@H](C)O3)cc1 | inactive | inactive | inactive
7 | C[C@H]1CN([C@@H](C)CO)C(=O)Cc2cc(NC(=O)C3CC3)ccc2O[C@@H]1CN(C)C(=O)Nc1ccc2c(c1)OCO2 | inactive | inactive | inactive
8 | OCc1cn(-c2ccccc2)nn1 | inactive | inactive | inactive
9 | COc1ccc(CN(C)C[C@@H]2Oc3ccc(NS(=O)(=O)c4c(C)noc4C)cc3CC(=O)N([C@H](C)CO)C[C@H]2C)cc1 | inactive | inactive | inactive
10 | C=C1C(=O)O[C@@H]2/C=C(\CO[C@@H]3O[C@H](CO)[C@@H](O)[C@H](O)[C@H]3OC(=O)Cc3ccc(O)cc3)CC/C=C(/C=O)C[C@H](O)[C@@H]12 | inactive | inactive | inactive
11 | O=C(C[C@@H]1CC[C@H]2[C@@H](COC[C@@H](O)CN2C(=O)c2ccc3c(c2)OCO3)O1)NCCN1CCCCC1 | inactive | active | inactive
12 | CC(C)C#Cc1ccc2c(c1)O[C@H](CN(C)C(=O)c1cnccn1)[C@@H](C)CN([C@H](C)CO)S2(=O)=O | inactive | inactive | inactive
13 | COc1ccc(S(=O)(=O)Nc2ccc3c(c2)CC(=O)N([C@H](C)CO)C[C@H](C)[C@@H](CN(C)S(=O)(=O)c2cccs2)O3)cc1 | inactive | inactive | inactive
14 | C[C@H](CO)N1C[C@H](C)[C@H](CN(C)S(=O)(=O)c2ccc(F)cc2)OCCCC[C@H](C)Oc2ccc(NC(=O)c3ccccc3)cc2C1=O | inactive | inactive | inactive
15 | C[C@@H]1CN([C@H](C)CO)C(=O)c2cc(NC(=O)c3ccccc3)ccc2O[C@@H](C)CCCCO[C@@H]1CN(C)Cc1ccc(C(=O)O)cc1 | inactive | inactive | inactive
16 | Cc1noc(C)c1NC(=O)Nc1ccc2c(c1)C(=O)N([C@H](C)CO)C[C@H](C)[C@@H](CN(C)C(=O)C1CCCCC1)OCCCC[C@H](C)O2 | inactive | inactive | inactive
17 | Cc1ccc(S(=O)(=O)Nc2ccc3c(c2)C(=O)N([C@@H](C)CO)C[C@H](C)[C@@H](CN(C)Cc2ccc(Cl)c(Cl)c2)OCCCC[C@@H](C)O3)cc1 | active | active | inactive
18 | C[C@H]1CCCCO[C@H](CN(C)Cc2ccccc2)[C@@H](C)CN([C@@H](C)CO)C(=O)c2cc(NC(=O)Nc3ccc(F)cc3)ccc2O1 | inactive | active | inactive
19 | C[C@H]1CCCCO[C@H](CN(C)C(=O)Nc2ccc(C(F)(F)F)cc2)[C@@H](C)CN([C@@H](C)CO)C(=O)c2cc(NC(=O)C3CCCCC3)ccc2O1 | inactive | inactive | inactive
20 | CN1CCN(C(=O)C[C@H]2C=C[C@@H](NC(=O)Cc3ccccn3)[C@H](CO)O2)CC1 | inactive | inactive | inactive
21 | CCC(=O)Nc1nc2[nH]c(COC)cc(=O)n2n1 | inactive | inactive | inactive
22 | C[C@@H]1CN([C@H](C)CO)C(=O)CCCn2cc(nn2)CO[C@H]1CN(C)C(=O)c1cc(-c2ccccc2)on1 | inactive | inactive | inactive
23 | C[C@H]1CN([C@@H](C)CO)C(=O)c2cc(C#Cc3ccncc3)cnc2O[C@H]1CN(C)S(=O)(=O)c1ccccc1F | inactive | active | inactive
24 | COc1ccc(-c2cnc3c(c2)C(=O)N([C@H](C)CO)C[C@H](C)[C@H](CN(C)C(=O)C2CCOCC2)O3)cc1 | inactive | inactive | inactive
25 | OC1(c2ccc(Cl)c(C(F)(F)F)c2)CCN(CCCC(c2ccc(F)cc2)c2ccc(F)cc2)CC1 | active | active | inactive
26 | Cc1ccc(S(=O)(=O)N(C)C[C@@H]2Oc3ccc(NC(=O)NC(C)C)cc3C(=O)N([C@@H](C)CO)C[C@@H]2C)cc1 | inactive | inactive | inactive
27 | C[C@@H]1CN([C@H](C)CO)C(=O)Cc2cc(NC(=O)Cn3cnnn3)ccc2O[C@@H]1CN(C)S(=O)(=O)c1cccs1 | inactive | inactive | inactive
